This is an account of results in article PMC5836133.

The other results are listed elsewhere or left out. At the low end of the ranking the order means little.

The test system of the assay is T1, GST-NbGlk1(82-244).
T1 sequence: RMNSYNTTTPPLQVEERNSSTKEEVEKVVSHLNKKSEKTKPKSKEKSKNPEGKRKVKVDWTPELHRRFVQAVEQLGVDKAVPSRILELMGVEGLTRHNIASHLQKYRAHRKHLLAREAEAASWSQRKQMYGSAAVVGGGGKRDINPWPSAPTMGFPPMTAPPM
In words: protein-binding microarray.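 Note: rank-based score ranging −0.5 to +0.5 with E above 0.45 taken as significant binding.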 Particulars: NbGlk1 is a Golden2-like transcription factor of Nicotiana benthamiana; high values mean tight binding; most listed sequences are background and not binding sites; double strand, one strand shown.
Consider ACTCATAA, for which the binding signal was found to be 0.00568 E-score. In the case of AGGTTTGA, the binding signal is -0.0238 E-score. For AGCAGGGG the value was -0.148 E-score; for AAGAGGTG, -0.191 E-score. Consider ATTCCTCC, for which the binding signal stood at 0.187 E-score. For AAGGACAT the value was -0.0376 E-score.

For ACCCTCGG, the binding signal is -0.0322 E-score.

AGCTCAAG displayed a binding signal of -0.203 E-score. The value for ACTGTCGC was 0.0264 E-score. For AATCCACA the value was 0.419 E-score; for AGAAGCCT, -0.257 E-score. For AATCCGAC the value was 0.375 E-score; for ACCGTTGG, -0.183 E-score.

For AAACTGGT, the binding signal was -0.116 E-score.

In turn, ACAAGGTC returned a binding signal of -0.167 E-score. For ATTTGGCA the value was 0.161 E-score. For AGTCGAAT the value was 0.0338 E-score. The value for AACTATCA was 0.0505 E-score; that for ACGGCTAG was -0.0966 E-score.

The sequence ACCGTTAG registered a binding signal of 0.031 E-score.

As for AGACATAG, the binding signal is -0.0306 E-score. Sequence AAATCAAA registered a binding signal of 0.309 E-score. CACTCTGC returned a binding signal of -0.0259 E-score. For ACCCATAG the value was -0.172 E-score. The value for AGCGCAAG was -0.00368 E-score; that for AGTAATAC was 0.0512 E-score. For AGCTGCCT the value was -0.204 E-score; for CAGATAAC, 0.165 E-score; for ACCCAGCC, -0.181 E-score. ATATCTGC registered a binding signal of 0.438 E-score.

For ACATCTAC, the binding signal is 0.0411 E-score.

For ATCCGGTA, the binding signal came out at 0.286 E-score.

On to ATGCAACC, for which the binding signal was -0.0952 E-score. The value for CACACCCC was -0.214 E-score. For AGATCGGG the value was 0.239 E-score. The value for ACTCGACC was -0.187 E-score.

In the case of ATGGTGAC, the binding signal was -0.26 E-score. The value for AAACCTTG was -0.0376 E-score; that for CACGGGTA was -0.147 E-score.

Turning to AGAGAAAA, the binding signal was 0.0447 E-score. Consider AGCTCACA, for which the binding signal is -0.343 E-score. For ATGAGCAG the value was -0.107 E-score; for CAGAATGA, -0.0644 E-score. For AAAGGTAA the value was 0.0447 E-score.

In the case of ACCGTATA, the binding signal worked out at 0.0842 E-score.

For ATATGTTA, the binding signal came to 0.148 E-score. For ACTGTAGG the value was -0.0914 E-score. The value for AGCTTCCC was -0.151 E-score; that for AGATGCAT was -0.0143 E-score. In the case of ATGTAAGG, the binding signal was -0.153 E-score. The value for AATTTGCT was 0.0921 E-score. In turn, AACTATGT displayed a binding signal of -0.0318 E-score. The value for ACCCCTGG was -0.163 E-score; that for AACGGTAA was 0.106 E-score; that for ACTGGTAC was -0.262 E-score. The value for AGCCAAGG was -0.218 E-score. For CACGAAAA the value was 0.0136 E-score; for CACTAGAG, -0.0409 E-score. With AGTTGCAA, the binding signal came out at 0.0931 E-score. The value for AGCGGTCG was -0.232 E-score; that for CAGAAAAG was 0.000659 E-score; that for ATAGGACC was -0.189 E-score. The value for ACAGAGCT was -0.107 E-score; that for ACACAACA was 0.0514 E-score; that for ACAAACGA was 0.07 E-score.

AAATAACG yielded a binding signal of 0.0986 E-score. For ACATTAGC the value was 0.0282 E-score; for CACTAGTA, 0.00522 E-score. The value for AAACACAT was -0.0343 E-score; that for AGATGGCA was -0.111 E-score; that for AGTAACAT was 0.0145 E-score.

On to ATGGCTAC, for which the binding signal was -0.324 E-score. For AATGAGGA the value was -0.0512 E-score; for ACTGGCCT, -0.242 E-score. The value for AATAACTG was 0.062 E-score; that for AGCAGGGA was -0.142 E-score. ATCAGCAT yielded a binding signal of 0.211 E-score. For ATAGAGCA the value was -0.0102 E-score; for AATGTGTC, -0.0182 E-score. For AATTAAGC the value was 0.00875 E-score; for ATATAGTC, 0.00479 E-score; for AGAGGTAA, 0.0195 E-score. For AGGGAATG the value was 0.00941 E-score; for ACGTTAAA, 0.0939 E-score; for ATGGAGCG, -0.184 E-score. ATAAATGC had a binding signal of -0.0113 E-score. For ACATATAA the value was 0.0975 E-score; for CACGAGCA, -0.117 E-score; for ACAAAGTA, -0.031 E-score. Sequence AGACCTAG yielded a binding signal of -0.244 E-score.

With ACGAGCTG, the binding signal was -0.132 E-score.

ATGCACAG: the binding signal came out at 0.0282 E-score.

Turning to AGTGTGAG, the binding signal was -0.0935 E-score.

In the case of AAATAGCG, the binding signal amounted to 0.0624 E-score.

For ATCGCGTA, the binding signal worked out at 0.357 E-score. The value for AACCTTGT was -0.13 E-score. The value for CACTCCGA was -0.147 E-score. For AGCGACCC the value was -0.302 E-score; for ACCGAGGG, -0.226 E-score; for AGGCACCC, -0.274 E-score. As for ACACTCCG, the binding signal was -0.103 E-score. For ACATCGGC the value was -0.12 E-score. The value for ACACATGC was -0.0831 E-score; that for AGTCCAGC was -0.15 E-score. For ATTTGGGG the value was 0.126 E-score; for AGCTTTAG, -0.26 E-score.

In turn, ATCACCGA came in with a binding signal of 0.144 E-score.

Sequence AGTCCCCC returned a binding signal of -0.165 E-score.

Regarding ACATCCAA, the binding signal was 0.0436 E-score.

CACAGGCA: the binding signal was -0.091 E-score. For AGCAAGGC the value was -0.181 E-score; for ATTCCGTC, 0.262 E-score. Sequence ACCCAAAG came in with a binding signal of -0.191 E-score. The value for AACGCCAC was -0.226 E-score; that for ACGATATA was 0.196 E-score. Sequence ACAGTGTA gave a binding signal of 0.105 E-score. Turning to ATGTGATG, the binding signal was -0.0778 E-score. For ACGACTCG the value was -0.052 E-score; for AAGCCTCT, -0.272 E-score.

As for AAACGGCT, the binding signal is -0.136 E-score. Regarding AGCAGTAT, the binding signal is 0.212 E-score. For AAGGAGAC the value was -0.288 E-score; for CAGCATAC, -0.0121 E-score; for AGAGGAGA, -0.0344 E-score. For ACACGTAA the value was 0.158 E-score; for ATCCACGG, 0.262 E-score. For CAGATAGG, the binding signal is -0.172 E-score. For AGTATCTG the value was 0.339 E-score; for ATCCAGTA, 0.326 E-score. The sequence ACTCAAAC registered a binding signal of -0.0808 E-score. For ATGATCAT the value was 0.13 E-score; for CACTTGAG, -0.0279 E-score. The value for CAGAGTGA was -0.0121 E-score. For ATGGTGGG, the binding signal was -0.173 E-score. For CAGCGACC the value was -0.231 E-score. Consider AGCTAACC, for which the binding signal is -0.2 E-score.

ACGGGGCA had a binding signal of -0.125 E-score. The value for AATGTCCC was -0.122 E-score; that for ATCTCTCA was 0.295 E-score. With AGCAAAAC, the binding signal is 0.00119 E-score. For ATAATATG the value was 0.0759 E-score.

In the case of ATTATTGA, the binding signal came out at 0.136 E-score. Turning to AAATCTCT, the binding signal amounted to 0.392 E-score.

Regarding ATACGGCC, the binding signal is 0.0441 E-score. As to ATACCTTC, the binding signal turned out to be 0.088 E-score. For ACGGGGGA the value was -0.0883 E-score; for AAAATACA, 0.203 E-score; for ACAATGGA, 0.0186 E-score.

Regarding AGCTAGGG, the binding signal was -0.211 E-score. For ACCCACGC the value was -0.222 E-score; for ACTATCAA, 0.013 E-score; for AAGTGACC, -0.0699 E-score. The value for ATTATTCA was 0.197 E-score; that for ATGGAAGA was 0.0609 E-score. For AGGTGGAT the value was 0.193 E-score. ACATCAAT: the binding signal is -0.0106 E-score. With ACGAGGAT, the binding signal came out at 0.218 E-score.

Sequence ATCTGAAT registered a binding signal of 0.319 E-score.

ATTCGAAT had a binding signal of 0.221 E-score. The value for ACTGGGAA was 0.0151 E-score; that for ACGTGTGC was -0.0723 E-score. The value for AGGAGGCA was -0.26 E-score; that for CACTGCCA was -0.227 E-score; that for ACGAATAT was 0.231 E-score. Consider ATGTTAGG, for which the binding signal is -0.0699 E-score. AGCGGTAA registered a binding signal of 0.105 E-score. Take AGCACCTC: the binding signal is -0.219 E-score. The value for ACATAAGA was 0.0102 E-score. For AATCTCCT the value was 0.401 E-score; for AACACAAG, 0.0588 E-score. The value for ATCGTGTA was 0.262 E-score; that for AGTCATAG was -0.128 E-score.
